Test results published in publication PMC4336329 (PLoS ONE, 2015).
In all, about 310,000 compounds went through this assay and about 14,000 (4.5%) showed an effect of 50% or more. The effect is printed as a negative number. The list shows a part of the results.

biological target: human ether-à-go-go-related gene (hERG) potassium channel (human, UniProt Q12809); experiment: primary screen, population patch clamp on CHO cells stably expressing hERG
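Note: peak tail current of the secondary pulse compared with the same well before compound.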

Chain of human ether-à-go-go-related gene (hERG) potassium channel (Q12809 whole entry, looked up): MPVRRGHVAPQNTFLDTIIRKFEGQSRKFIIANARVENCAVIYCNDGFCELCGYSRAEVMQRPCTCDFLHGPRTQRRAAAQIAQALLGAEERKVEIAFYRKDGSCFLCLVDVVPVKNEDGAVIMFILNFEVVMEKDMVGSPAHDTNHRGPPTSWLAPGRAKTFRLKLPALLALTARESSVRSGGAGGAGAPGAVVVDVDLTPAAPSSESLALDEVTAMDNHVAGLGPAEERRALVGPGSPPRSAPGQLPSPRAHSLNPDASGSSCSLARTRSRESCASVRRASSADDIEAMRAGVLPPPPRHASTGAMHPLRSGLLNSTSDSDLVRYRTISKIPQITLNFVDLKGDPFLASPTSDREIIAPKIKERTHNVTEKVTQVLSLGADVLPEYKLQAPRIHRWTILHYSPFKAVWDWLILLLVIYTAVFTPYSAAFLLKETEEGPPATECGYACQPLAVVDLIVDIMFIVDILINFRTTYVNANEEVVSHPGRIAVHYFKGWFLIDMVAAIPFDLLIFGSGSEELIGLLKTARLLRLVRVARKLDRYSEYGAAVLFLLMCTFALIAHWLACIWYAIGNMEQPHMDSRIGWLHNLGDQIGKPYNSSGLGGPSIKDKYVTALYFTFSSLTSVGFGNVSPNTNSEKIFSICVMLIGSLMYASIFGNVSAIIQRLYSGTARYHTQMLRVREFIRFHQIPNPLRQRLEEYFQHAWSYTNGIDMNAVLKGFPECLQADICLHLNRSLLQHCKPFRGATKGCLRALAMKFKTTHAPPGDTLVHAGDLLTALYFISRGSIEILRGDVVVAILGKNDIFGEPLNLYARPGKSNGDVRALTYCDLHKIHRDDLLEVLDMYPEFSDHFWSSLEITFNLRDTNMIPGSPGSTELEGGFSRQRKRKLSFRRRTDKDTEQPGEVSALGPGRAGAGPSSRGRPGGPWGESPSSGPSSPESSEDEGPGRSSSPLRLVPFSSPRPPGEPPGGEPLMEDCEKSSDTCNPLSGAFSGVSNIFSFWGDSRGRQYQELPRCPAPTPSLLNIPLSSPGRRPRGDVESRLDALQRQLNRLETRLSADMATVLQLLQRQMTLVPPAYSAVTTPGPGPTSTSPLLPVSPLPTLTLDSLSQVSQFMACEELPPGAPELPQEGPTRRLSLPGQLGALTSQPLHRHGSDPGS

Structure (SMILES) | hERG current change (%, negative = inhibition) at 10uM [%]
CCN1CCN(c2ccc(NC(=O)c3ccc(C#N)cc3F)cc2Cl)CC1 | -72.1
O=C1C2C3C=CC(C3)C2C(=O)N1CN(Cc1ccccc1)CN1C(=O)C2C3C=CC(C3)C2C1=O (stereo not shown) | -2.54
O=C(c1ccc(NS(=O)(=O)/C=C/c2ccccc2)cc1)N1CCCCC1 | -26.2
CCOC(=O)c1nc(Nc2ccccc2CC)c2ccccc2n1 | -11.4
c1cncc(C2Nc3ccccc3-c3nc4ccccc4n32)c1 (stereo not shown) | -5.58
Cc1c(C(=O)O)sc2nc(CSc3nnc(-c4ccc(F)cc4)n3C)[nH]c(=O)c12 | 10.9
CC(OC(=O)c1cccc(-n2cnnn2)c1)C(=O)NC1(C#N)CCCCC1 (stereo not shown) | -13.7
COC(=O)c1ccc(OCC(=O)Nc2ccccc2C(=O)NC2CC2)cc1 | -13.8
CCC1CCCCN1P(=O)(c1ccc(C)o1)C(C)(C)C (stereo not shown) | -27.4
COc1cccc(C(=O)N[C@@H](C)C(=O)N2CCC3(CC2)NCCc2[nH]cnc23)c1 | 21.3
Nc1ncc(-c2ccccc2)c(-c2ccc(OCc3ccccc3)cc2O)n1 | -2.98
Cc1ccc(S(=O)(=O)NC(=O)c2ccc(-c3ccc(-c4ccccc4)cc3)o2)c(C)c1 | -22.4
COc1ccc([N+](=O)[O-])cc1NC(=O)C(C)c1ccccc1 (stereo not shown) | -15.4
COc1ccc(OCc2nnc3n2N=C(c2ccc(Br)cc2)CS3)cc1 | -1.31
CC(C)(C)C(=O)O/N=C(\N)c1ccc([N+](=O)[O-])s1 | 20.7
Cc1sc(NC(=O)c2ccco2)c(C(Nc2ccccn2)c2ccccc2)c1C (stereo not shown) | 4.67
COc1ccccc1C(=O)NCC(=O)Nc1ccc2c(c1)CCC2 | -3.66
O=C(Nc1ccccc1)N1CCSc2cc(Cl)ccc21 | -0.0515
CCC(C)NC(=O)c1ccc(NC(=O)CC2SC(N3CCCCC3)=NC2=O)cc1 (stereo not shown) | 16
Cc1cc(C)cc(NC(=O)c2cccc(C(=O)Nc3cc(C)cc(C)c3)n2)c1 | 15.7
CCOc1ccc(C(=O)NCCO)cc1 | 4.7
COc1ccccc1C(=O)Nc1cc2cc(Br)ccc2oc1=O | 15.5

Structure (SMILES) | hERG current change (%, negative = inhibition) at 10uM [%]
O=C(NOC(=O)c1ccccc1Cl)c1cccs1 | 2.83
Oc1c(C=Nc2ccccc2)sc(=S)n1Cc1ccccc1 | 4.64
COc1ccccc1/C=C/C=N/n1c(-c2ccc(F)cc2)n[nH]c1=S | 6.25
COc1ccc(NC(=O)Cn2nnc(C(=O)NCc3cccs3)c2N)cc1Cl | -5.23
O=C(O)c1cc(-c2ccc(N3CCOCC3)cc2)nn1-c1ccc(F)cc1 | 14.6
CC(NC(=O)c1ccc(Cl)cc1Cl)C(c1ccccc1)N1CCOCC1 (stereo not shown) | 18.9
O=S1(=O)C=C(N2CCOCC2)c2ccccc21 | 15.5
Cn1nc(-c2ccc(Cl)cc2)cc1NC(=O)CC(C)(C)CC(=O)O | 17.9
COc1ccc(N(CC(=O)Nc2nccs2)S(=O)(=O)c2c(C)[nH]c(=O)[nH]c2=O)cc1 | 10.9
O=C(NC1CC2CCCC(C1)N2C(=O)Nc1cccc(F)c1)C1CC1 (stereo not shown) | 0.0121
COc1ccc(CNC(=O)Cc2ccc(-c3ccccc3)cc2)cc1OC | 8.17
Clc1ccc(-c2nc3ncccn3c2Nc2ccc3c(c2)OCO3)cc1 | 20.7
Cc1ccc(Cn2nc(C)c(C=O)c2Cl)cc1 | 5.73
Cc1cc(C)c2c(ccc3cccc[n+]32)c1.[O-][Cl+3]([O-])([O-])[O-] | -16.2
CCOc1ccc(NC(=O)COc2ccc(OC)cc2)cc1 | 12.8
CCN1CCN(CCC(=O)Nc2cccc(C)c2)CC1.Cl | 0.741
COC(=O)c1ccc(C(=O)OC)c(NC(=O)CSCc2ccc(Cl)cc2)c1 | -2.64
CCc1cc2c(=O)n(CCC(C)C)c(=S)[nH]c2s1 | 10.8
Cc1ccc(C2(C)NC(=O)N(CC(=O)NCCC3=CCCCC3)C2=O)cc1 (stereo not shown) | 10.6
CCN(CC)c1ccc(NC(=O)COC(=O)CCC(=O)c2ccc(F)cc2)cc1 | 0.0727
Cn1cc(C(=O)NCc2ccccc2)c2ccccc21 | 4.35
CC(NC(=O)Nn1cnnc1)(C(F)(F)F)C(F)(F)F | 10.3

Structure (SMILES) | hERG current change (%, negative = inhibition) at 10uM [%]
CCC(C)(C)C1CCC(NC(=O)N2CCN(c3ccccc3O)CC2)CC1 (stereo not shown) | -6.84
CCCCOc1ccccc1N1CCN(CCCN2C(=O)C3CCCN3C2=O)CC1.Cl (stereo not shown) | -56.7
O=c1c2ccccc2nc2n1C(CSc1ccc(Cl)cc1)CN2 (stereo not shown) | -8.43
Cn1ncc(Br)c1C(=O)N1CCCCCC1 | 18
CNc1oc(-c2cccs2)nc1S(=O)(=O)c1ccccc1 | -18.7
COc1cccc(C(=O)Nc2ccc(NC(=O)C3C4C=CC(C4)C3C(=O)O)cc2)c1 (stereo not shown) | 13.4
CCOc1cc(C=C2C(=O)NC(=O)NC2=O)ccc1OS(=O)(=O)c1ccccc1 | -18
Cc1ccc(OCCC(=O)OCC(=O)Nc2cc(C)cc(C)c2)cc1 | 24.5
O=C(c1ccccn1)N1CCCC(N2CCN(Cc3ccc4c(c3)OCO4)CC2)C1 (stereo not shown) | 4.4
COC(=O)CNC(=O)C12CC3CC(C1)CC(c1ccc(C)cc1)(C3)C2 | 12.9
Cc1cccc(Nc2ccccc2C(=O)O)c1C | 2.88
COc1ccccc1NS(=O)(=O)c1cc(NC(=O)Nc2cccc(C)c2)ccc1N1CCCCC1 | 8
O=C1OCC(CO)(CO)N=C1NNc1ccc(Cl)c(Cl)c1 | 8.16
Cc1ccc(C(=O)Nc2ccccc2Sc2ccccc2)cc1 | 16.9
Cl.N=c1n(CCO)c2ccccc2n1CCN1CCCCC1 | 6.77
COc1ccccc1-n1c(SCC(=O)N2CCOCC2)nc(O)cc1=O | 18.3
Cc1occc1-c1nnc(SCC(=O)c2c(N)n(C3CC3)c(=O)[nH]c2=O)n1C | -11.1
COc1ccc(C2C(C(=O)NCc3ccco3)CCC(=O)N2c2ccc(OC)cc2)cc1 (stereo not shown) | 9.48
C/C(=N\N=c1/sc2ccccc2n1C)c1ccccn1 | -6.62
C/C(=N\Nc1ccc([N+](=O)[O-])cc1)c1ccc2c(c1)OCO2 | 2.82
NS(=O)(=O)c1ccc(N/N=C/C=C/c2ccccc2[N+](=O)[O-])cc1 | 10.1
COCCN1C(=O)Cc2c1nc(N)c1c(N)nc(N3CCN(c4ccc(F)cc4)CC3)c(C#N)c21 | -11.3

Structure (SMILES) | hERG current change (%, negative = inhibition) at 10uM [%]
Fc1ccc(NC(=S)N2CCCC2)cc1 | -1.37
O=c1cc(-c2ccc(O)cc2)oc2c(C3O[C@H](CO)[C@@H](O)[C@H](O)[C@H]3O)c(O)cc(O)c12 (stereo partly shown) | 17.8
O=C(Oc1cccc(Nc2ncnc3ccccc23)c1)c1cccnc1 | -3.78
COc1ccc(NC(=O)C(C)N2c3cccc4cccc(c34)S2(=O)=O)cc1OC (stereo not shown) | -3.78
O=C(Cn1c(=O)n(CC2CCCO2)c(=O)c2ccccc21)c1ccc(Cl)c(Cl)c1 (stereo not shown) | -16.4
CC(C)N1CC(C(=O)Nc2ccc(Cl)c(Cl)c2)CC1=O (stereo not shown) | 9.54
Cc1ccc(-n2ccnc2SCC(=O)N(CC(C)C)C2CCS(=O)(=O)C2)c(C)c1 (stereo not shown) | -9.82
CCCCNC(=O)C1c2cc(OC)c(OC)cc2C(=O)N(C)C1c1ccc(OC)cc1 (stereo not shown) | 3.21
Cc1cccc(C)c1NC(=O)C1c2cccc[n+]2CC(=O)N1Cc1cccs1.[I-] (stereo not shown) | 4.89
CCCC(/C=C/c1ccc(OC(C)=O)cc1)=C1/c2ccccc2C(=O)N1c1ccccc1 | 14.6
NC(=O)c1ccccc1NC(=O)CSc1nc2ccccc2c(=O)[nH]1 | 20.9
CC(C(=O)NC1CCCC1)N(C(=O)c1snc(C(N)=O)c1N)c1ccc2c(c1)OCCO2 (stereo not shown) | -19.3
COc1ccccc1C(=O)Nc1ccc(N2CCN(S(C)(=O)=O)CC2)cc1 | -7.79
CC1=CC2=NC(=O)/C(=C\c3cn(C)c4ccccc34)C(=N)N2O1 | -0.356
COC(=O)c1cc(Cl)c(NC(=O)c2ccco2)cc1OC | 12
Cc1nn(-c2ccccc2)c(N)c1C(c1ccccc1)c1c(C)nn(-c2ccccc2)c1N | -11
COc1ccc(CCNC(=O)c2ccc(Br)cc2)cc1 | 11.5
c1ccc2[nH]c(CSc3nc4ccccc4s3)nc2c1 | -23.1
COC(=O)c1ccc(=O)n(Cc2ccc3c(c2)OCO3)c1 | 7.31
COc1cccc(OCc2nnc(SC)n2C)c1 | -7.06
NC(=O)N1c2ccccc2CC(=O)c2ccccc21 | -1.16
CCOC(=O)c1sc(NC(=S)NC(=O)c2cccc(Cl)c2)c(C(=O)OCC)c1C | -5.05
